Experimental data as given in PMC6919601, “Identification of Plasmodium dipeptidyl aminopeptidase allosteric inhibitors by high throughput screening” (PLoS ONE, 2019).
Among all 110,000 compounds or so, about 230 (0.21%) showed an effect of 50% or more. The list shows a part of the results.

Target: DPAP1 (Plasmodium falciparum, UniProt Q8IIJ9)
Assay: primary screen, percent inhibition; read by cleavage of a fluorogenic dipeptide substrate; higher = more effect of the substance
Set-up: species or system P. falciparum D10 trophozoite lysates; single well
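Note: 30 min substrate incubation versus DMSO and 10 µM JCP410 controls.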

DPAP1, sequence (Q8IIJ9 whole entry, looked up): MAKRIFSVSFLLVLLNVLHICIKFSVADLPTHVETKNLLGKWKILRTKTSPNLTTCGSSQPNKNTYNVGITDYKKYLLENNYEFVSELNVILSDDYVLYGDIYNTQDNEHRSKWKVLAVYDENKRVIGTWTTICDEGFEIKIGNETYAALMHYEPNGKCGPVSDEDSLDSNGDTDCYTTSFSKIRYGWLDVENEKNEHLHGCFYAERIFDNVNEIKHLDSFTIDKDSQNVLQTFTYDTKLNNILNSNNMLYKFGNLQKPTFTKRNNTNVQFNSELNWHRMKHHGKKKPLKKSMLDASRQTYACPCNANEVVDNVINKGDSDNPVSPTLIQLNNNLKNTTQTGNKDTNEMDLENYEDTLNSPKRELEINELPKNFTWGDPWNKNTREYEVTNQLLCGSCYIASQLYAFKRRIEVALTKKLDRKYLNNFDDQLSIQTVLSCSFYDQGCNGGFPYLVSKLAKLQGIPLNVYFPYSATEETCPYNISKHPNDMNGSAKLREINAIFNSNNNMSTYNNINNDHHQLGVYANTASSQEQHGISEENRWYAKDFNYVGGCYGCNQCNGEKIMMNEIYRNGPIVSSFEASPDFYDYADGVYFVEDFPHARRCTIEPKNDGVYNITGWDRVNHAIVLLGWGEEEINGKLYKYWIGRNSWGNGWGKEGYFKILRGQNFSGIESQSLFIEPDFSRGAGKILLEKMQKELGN

Row | Structure (SMILES) | % Inhibition @ 10 uM [%]
1 | C=CCOc1ccc(C2C3=C(CC(C)(C)CC3=O)N(CCOC)C3=C2C(=O)CC(C)(C)C3)cc1OC | -2.44
2 | CCCCCOc1ccc(C2c3c(-c4ccccc4O)n[nH]c3C(=O)N2CCCO)cc1OC (stereo not shown) | 0.366
3 | CCc1nn(-c2cc(Oc3ccccc3C)ncn2)c(N)c1C#N | 1.57
4 | O=C1CC(N2CCc3ccccc32)C(=O)N1c1ccc(F)cc1 (stereo not shown) | -4.15
5 | CCOc1cccc2c1OC(c1ccc(F)c(F)c1)N1N=C(c3ccc(C)o3)CC21 (stereo not shown) | 10.7
6 | C=CCNc1nc(Cl)nc(N2CCSCC2)n1 | 3.15
7 | Cc1ccc(OCC(=O)Nc2nnc(C(C)C)s2)c(C)c1 | 0.685
8 | CCN(CC)C(=O)c1ccc(CS(=O)(=O)c2ccccc2OC)o1 | -3.09
9 | O=C(NCCc1ccccc1)c1cnc2ccccc2n1 | -5.72
10 | Cc1[nH]nc2c1C(c1ccc(F)c(Br)c1)C(C#N)=C(N)O2 (stereo not shown) | 1.37
11 | COc1cc(/C=C2\NC(=O)N(Cc3ccc(Cl)cc3)C2=O)cc(Cl)c1OCC(=O)O | 8.37
12 | COc1ccc(C2C(C(=O)Nc3cccnc3)=C(C)Nc3nc(-c4cccs4)nn32)c(OC)c1 (stereo not shown) | -5.35
13 | COc1ccccc1CN1CCN(Cc2ccccc2C(F)(F)F)CC1 | 0.993
14 | Cc1cc(OCC(=O)NCc2nc(-c3ccccc3)no2)cc(C)c1Br | -1.22
15 | CCOC(=O)C1=C(CN2CCN(c3ccc(Cl)nn3)CC2)NC(=O)NC1c1cccs1 (stereo not shown) | -0.913
16 | C=CCn1c(=O)n(Cc2ccccc2)c(=O)c2c3c(sc21)CCCC3 | 0.685
17 | COc1cc2c(cc1OC)CN(Cc1ccc(-c3ccccc3)cc1)CC2 | -1.92
18 | COc1ccc(-c2csc(Nc3ccc(N)cc3)n2)cc1OC | 3.35
19 | CC1CCN(C(=O)CN2Cc3ccccc3C2=O)CC1 | 2.37
20 | Cc1nnc2sc(NC(=O)COc3ccccc3F)nn12 | 7.1
21 | O=C(Nc1ccccc1)Nc1ccc(S(=O)(=O)N2CCCC2)cc1 | 9.53
22 | O=C(Cn1nc(C(F)(F)F)cc1C1CC1)Nc1ccc(F)cc1 | -1.36

Row | Structure (SMILES) | % Inhibition @ 10 uM [%]
23 | O=C(Nc1ccccc1Cl)NC1CCCc2ccccc21 (stereo not shown) | -4.82
24 | c1ccc(-c2csc(-c3c[nH]c4ccccc34)n2)cc1 | 0.147
25 | O=C(O)c1cc(-c2ccccc2)nc2c(Cl)ccc(Cl)c12 | 3.72
26 | CCCOc1ccc(Br)cc1C1NC(=O)NC(c2ccccc2)=C1C(C)=O (stereo not shown) | -0.105
27 | Nc1ccc2c(c1)C(=O)N(CC1CCCO1)C2=O (stereo not shown) | 0.189
28 | O=C(O)c1ccccc1C(=O)n1cnc2ccccc21 | -4.62
29 | COc1ccc(/C=C\C=C\c2ccccc2)cc1 | -1.38
30 | COc1ccc(C2=NN(c3ccccc3)C(c3ccccc3C(F)(F)F)C2)cc1 (stereo not shown) | 1.88
31 | CCn1cc(CN(Cc2ccccc2)C(=S)NC)c2ccccc21 | 4.42
32 | c1ccc(OCc2nnc3sc(-c4ccccc4)nn23)cc1 | 9.4
33 | Cc1ccccc1OCc1nc2c3cnn(-c4cc(Cl)ccc4Cl)c3ncn2n1 | -6.5
34 | CCCC(=O)NCn1nnc(-c2ccc(OC)cc2)n1 | -0.834
35 | CCO/C(O)=C1\C(C)=NC2=C(C(=O)c3ccccc32)C1c1cccc2ccccc12 (stereo not shown) | 2.24
36 | Cn1nccc1C(=O)NC1C2CC3CC(C2)CC1C3 (stereo not shown) | 1.27
37 | Cc1ccnc(NC(=O)C2CCCN(S(=O)(=O)c3c[nH]cn3)C2)c1 (stereo not shown) | -1.89
38 | CC(C)C[C@H](NC(=O)c1ccc(N2CCN(C)CC2)cc1)C(=O)N1CCN(C)CC1 | 6.4
39 | CC(C)(C)NC(=O)COc1ccc(S(=O)(=O)NC2CCCCC2)cc1 | 4.74
40 | COc1ccc(CN2CC(C)OC(C)C2)cc1C (stereo not shown) | 1.87
41 | Cc1cc(C)c2c(N)c(C(=O)c3ccc(Cl)cc3)sc2n1 | 4.66
42 | CCN(CC)CCN1C(=O)C(O)=C(C(=O)c2ccc3c(c2)OCCO3)C1c1cccc2ccccc12 (stereo not shown) | -0.0619
43 | CC1CCc2c(sc3c2c2nnc(S)n2c2nnc(S)n32)C1 (stereo not shown) | -0.603
44 | Cc1nn(C)c(C(=O)NC23CC4CC(CC(C4)C2)C3)c1Br | 20.2

Row | Structure (SMILES) | % Inhibition @ 10 uM [%]
45 | CC(=O)c1ccc(OCC(O)CN2CCN(Cc3ccc4c(c3)OCO4)CC2)cc1 (stereo not shown) | -5.08
46 | Cc1ccc(NC(=O)CCc2c(C)nc3ccc(C)cn3c2=O)nc1 | 2.39
47 | CCC/N=c1\c(NS(=O)(=O)c2ccc(OC)c(Cl)c2)c(O)oc2ccccc12 | -1.27
48 | Cc1ccccc1C(=O)Nc1ccc(S(N)(=O)=O)cc1 | 0.709
49 | CN(C)c1ccc(/C=C(\C#N)c2nc(-c3ccc([N+](=O)[O-])cc3)cs2)cc1 | 0.247
50 | COc1ccc(-c2nnc(NC(=O)c3ccc(C)cc3)s2)cc1 | -0.546
51 | CC1=C(C(=O)Nc2ccccc2C)C(c2cccc(F)c2)n2nc(CCCO)nc2N1 (stereo not shown) | -5.67
52 | O=C(CC1Sc2ccccc2NC1=O)Nc1ccc2c(c1)OCO2 (stereo not shown) | -1.86
53 | O=C1N/C(=C/c2ccsc2)C(=O)N1Cc1ccccc1F | 1.63
54 | O=C(Nc1ccc(S(=O)(=O)N2CCOCC2)cc1)C1CC1 | -4.14
55 | Cc1ocnc1C(=O)O | -4.74
56 | CCc1ccc(-c2cc(C(=O)NCCC(C)C)[nH]n2)cc1 | 0.514
57 | O=C1NC(=O)/C(=C\c2cn(CC(=O)N3CCOCC3)c3ccccc23)S1 | 2.09
58 | CC(C)(C)C1CCC(N2CCN(CCO)CC2)CC1 (stereo not shown) | -0.0908
59 | Cc1nn(C(C)C(=O)NCc2ccco2)c(=O)c2cc3occc3n12 (stereo not shown) | -2
60 | COCCN1C(=O)/C(=C\c2cccc(OC)c2O)C(C(=O)OC)=C1C | 3.43
61 | COc1ccc(Cl)cc1NC(=O)CCC(=O)Nc1cc(Cl)ccc1OC | 1.89
62 | CCN(CC)c1ccc(/C=C2\C(=O)NC(=S)N(c3cccc(Cl)c3)C2=O)c(O)c1 | -4.98
63 | Cc1ccc(Oc2nc3c(C)cccn3c(=O)c2/C=C(\C#N)C(=O)NC2CCCCC2)cc1 | -11.1
64 | CCOc1cccc2cc(S(=O)(=O)c3ccc(F)c(Cl)c3)c(=O)oc12 | -1.3
